# Experimental data: PubChem BioAssay AID504333 (National Center for Advancing Translational Sciences (NCATS), 2011)
# Screen size: about 360,000 compounds; about 16,000 (4.4%) were called active. The inconclusive results got no clear call from the source; some entries with a clear call stand among them for comparison. Calls follow the shape of the dose curve; as a rule, active = well fitted inhibition curve with a large enough effect; inconclusive = small, poorly fitted or top-dose-only effect; inactive = no such curve, though single readings can be large or run the other way. Potencies of inconclusive entries are doubtful fits and often do not repeat. Some structures have more than one record in an assay (separate samples or runs), and their calls can disagree.
# Target: Bromodomain adjacent to zinc finger domain protein 2B (Homo sapiens) (UniProt Q9UIF8)
# Test: qHTS Assay for Inhibitors of BAZ2B; also: nearly all actives have a fitted effect of over 60% in size
# Settings: AlphaScreen BAZ2B-H3K14Ac peptide displacement; series mostly up to 114 µM
# How it was run: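 Inhibition is scored as reduced AlphaScreen emission. The BAZ2B/b-H3(5-23)K14Ac complex (50 nM each) in PBS pH 7.4, 0.01% Tween-20 meets compound (up to 110 uM) for 30 min at RT before bead addition.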
# Potency is read from the fitted curve at half-maximal effect; tags tell the direction and shape of the fitted curve.
# Sequence of UniProt Q9UIF8 (Q9UIF8 whole entry, looked up, the tested form may be a part): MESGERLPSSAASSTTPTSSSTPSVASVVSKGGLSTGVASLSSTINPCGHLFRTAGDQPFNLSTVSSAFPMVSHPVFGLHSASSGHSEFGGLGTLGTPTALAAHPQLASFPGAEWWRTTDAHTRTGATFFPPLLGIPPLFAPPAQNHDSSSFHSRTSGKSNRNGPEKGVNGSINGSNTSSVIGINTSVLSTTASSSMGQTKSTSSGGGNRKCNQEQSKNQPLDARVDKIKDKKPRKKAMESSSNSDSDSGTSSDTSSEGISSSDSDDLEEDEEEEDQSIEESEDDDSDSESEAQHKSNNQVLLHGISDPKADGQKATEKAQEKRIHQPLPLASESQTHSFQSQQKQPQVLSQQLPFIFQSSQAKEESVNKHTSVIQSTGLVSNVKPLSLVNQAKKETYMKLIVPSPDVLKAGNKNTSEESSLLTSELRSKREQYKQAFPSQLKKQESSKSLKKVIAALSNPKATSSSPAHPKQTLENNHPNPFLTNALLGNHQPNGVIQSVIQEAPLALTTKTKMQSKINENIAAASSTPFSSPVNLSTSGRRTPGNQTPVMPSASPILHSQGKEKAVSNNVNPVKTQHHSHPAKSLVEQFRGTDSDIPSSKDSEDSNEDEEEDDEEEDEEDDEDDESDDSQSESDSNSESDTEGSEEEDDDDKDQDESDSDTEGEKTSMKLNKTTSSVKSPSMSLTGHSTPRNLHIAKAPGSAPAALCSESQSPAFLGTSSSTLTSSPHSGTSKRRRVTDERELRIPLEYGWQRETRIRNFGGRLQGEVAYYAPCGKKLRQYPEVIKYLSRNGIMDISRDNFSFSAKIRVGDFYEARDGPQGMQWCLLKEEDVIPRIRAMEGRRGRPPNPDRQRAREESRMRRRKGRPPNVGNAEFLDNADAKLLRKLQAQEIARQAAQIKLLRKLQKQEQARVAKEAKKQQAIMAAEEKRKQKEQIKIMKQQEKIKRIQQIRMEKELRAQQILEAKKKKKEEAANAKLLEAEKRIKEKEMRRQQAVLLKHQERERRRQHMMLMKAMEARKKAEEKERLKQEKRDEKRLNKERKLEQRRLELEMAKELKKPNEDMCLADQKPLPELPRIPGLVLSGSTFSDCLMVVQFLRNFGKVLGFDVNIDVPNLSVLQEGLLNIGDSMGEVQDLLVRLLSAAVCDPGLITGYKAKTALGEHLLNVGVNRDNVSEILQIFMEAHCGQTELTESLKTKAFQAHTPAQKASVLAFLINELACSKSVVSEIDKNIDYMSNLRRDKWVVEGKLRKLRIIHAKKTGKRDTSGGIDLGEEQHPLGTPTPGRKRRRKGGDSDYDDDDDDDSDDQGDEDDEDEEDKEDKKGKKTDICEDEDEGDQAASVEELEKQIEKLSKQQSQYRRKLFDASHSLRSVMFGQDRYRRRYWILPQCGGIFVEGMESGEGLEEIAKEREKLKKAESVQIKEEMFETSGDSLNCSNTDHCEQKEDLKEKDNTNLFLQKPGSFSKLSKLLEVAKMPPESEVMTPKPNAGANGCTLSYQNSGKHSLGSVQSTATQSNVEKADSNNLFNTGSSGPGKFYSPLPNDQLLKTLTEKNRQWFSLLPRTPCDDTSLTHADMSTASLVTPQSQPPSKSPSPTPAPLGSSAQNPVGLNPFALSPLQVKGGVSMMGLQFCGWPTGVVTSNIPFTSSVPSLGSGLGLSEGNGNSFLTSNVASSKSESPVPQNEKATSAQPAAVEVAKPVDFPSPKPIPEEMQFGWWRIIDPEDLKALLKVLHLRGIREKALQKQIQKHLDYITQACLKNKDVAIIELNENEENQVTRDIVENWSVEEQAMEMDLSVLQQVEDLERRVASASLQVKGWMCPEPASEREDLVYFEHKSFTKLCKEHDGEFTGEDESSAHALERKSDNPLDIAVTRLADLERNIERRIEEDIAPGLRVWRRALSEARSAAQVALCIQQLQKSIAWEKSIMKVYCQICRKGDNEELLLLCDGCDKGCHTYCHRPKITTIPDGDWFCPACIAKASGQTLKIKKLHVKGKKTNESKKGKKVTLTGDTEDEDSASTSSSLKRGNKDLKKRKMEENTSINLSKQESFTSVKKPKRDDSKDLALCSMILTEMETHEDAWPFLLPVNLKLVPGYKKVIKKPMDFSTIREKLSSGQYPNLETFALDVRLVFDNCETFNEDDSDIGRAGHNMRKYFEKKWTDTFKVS
row,Structure (SMILES),Potency
1,COc1cc(Cl)c(C)cc1NC(=O)C1CCN(c2nc3ccccc3n3cccc23)CC1,inactive
2,CCN(CC)c1ccc(N2C(=O)/C(=C\c3cccnc3)SC2=S)cc1,"inconclusive: 2.82 µM [inhibitor, full curve]"
3,CCc1cccc(C)c1NS(=O)(=O)c1c(C(=O)N2CCC(C)CC2)c(C)n(C)c1C,"inconclusive: 79.4 µM [inhibitor, single point]"
4,O=C(NNC(=S)Nc1ccc(Br)cc1)c1ccccc1,inactive
5,Cc1cc(-c2ccccc2)nc2cc(C(=O)NCCCn3ccnc3)nn12,"inconclusive: 89.1 µM [inhibitor, single point]"
6,COc1cc(/C=C2/SC(=S)N(CC(=O)Nc3cccnc3)C2=O)cc(OC)c1OC,"inconclusive: 70.8 µM [inhibitor, single point]"
7,N#Cc1nc(COc2ccc(F)cc2)oc1N1CCCCC1,"inconclusive: 50.1 µM [inhibitor, partial curve]"
8,Cc1cc(N2CCOCC2)ccc1/C=C\[N+](=O)[O-],"inconclusive: 56.2 µM [inhibitor, partial curve]"
9,Nn1c(SCC(=O)Nc2ccc(F)cc2)nnc1C1CCCCC1,inactive
10,O=C(O)c1ccc(-c2nc(-c3ccc(Cl)cc3Cl)cs2)cc1,"inconclusive: 89.1 µM [inhibitor, single point]"
11,COc1ccc(Cn2c(C(=O)O)c(CNCc3ccccc3F)c3ccc(OC)cc32)cc1,"inconclusive: 79.4 µM [inhibitor, single point]"
12,O=C(NCCC1=CCCCC1)c1ccc2c(c1)N(Cc1cccc(Cl)c1)C(=O)c1ccccc1S2=O (centres undefined),inactive
13,CC1(C)Cc2c(sc3c2c(=N)n(Cc2ccco2)c(=O)n3CC(=O)Nc2ccccc2)CO1,"inconclusive: 100 µM [inhibitor, single point]"
14,CCN(CCCNC(=O)C1CCC(=O)N1Cc1ccc(C)cc1)c1cccc(C)c1 (centres undefined),"inconclusive: 50.1 µM [inhibitor, partial curve]"
15,Cc1cc2c(c(=O)n1-c1ccccc1)C1O[C@](c3ccsc3)(Cc3ccccc31)O2,"inconclusive: 12.6 µM [inhibitor, single point]"
16,CC(=O)Nc1ccc(S(=O)(=O)Oc2cccc(/C=N/N=C3/NC(=O)C(CC(=O)O)S3)c2)cc1 (centres undefined),active: 56.2 µM
17,Cc1cc(OCC(=O)Nc2ncn[nH]2)ccc1Cl,active: 44.7 µM
18,N#Cc1cnc(Nc2nc3ccccc3o2)nc1-c1ccccc1,inactive
19,COC(=O)c1ccc(CN(Cc2ccc(C(=O)OC)o2)C(C)(C)C)o1,"inconclusive: 79.4 µM [inhibitor, partial curve]"
20,O=C(N/N=C(/CC(=O)c1cccs1)C(F)(F)F)c1ccc(O)cc1,"inconclusive: 50.1 µM [inhibitor, partial curve]"
21,CN(C(=O)C1CCCO1)c1nnc(-c2ccccn2)s1 (centres undefined),"inconclusive: 100 µM [inhibitor, single point]"
22,CC(=O)c1c(C)[nH]c(C(=O)Nc2ccc(C)c(S(=O)(=O)Nc3ccc(C)cc3C)c2)c1C,"inconclusive: 70.8 µM [inhibitor, single point]"
23,Cc1ccc(S(=O)(=O)NC(CC(C)C)C(=O)Nc2nccs2)cc1 (centres undefined),inactive

row,Structure (SMILES),Potency
1,CC1Cc2ccccc2N1C(=S)NC(=O)c1cccc(Br)c1 (centres undefined),"inconclusive: 10 µM [inhibitor, full curve]"
2,COc1ccccc1-n1c(-c2cc(-c3ccco3)[nH]n2)n[nH]c1=S,"inconclusive: 39.8 µM [inhibitor, partial curve]"
3,Cc1ccc(-c2nc(C)sc2CC(=O)OCC(=O)Nc2cccc([N+](=O)[O-])c2)cc1,"inconclusive: 39.8 µM [inhibitor, partial curve]"
4,COc1cccc(-c2nc(C(=O)NCCCN3CCOCC3)cc3c2[nH]c2ccccc23)c1,"inconclusive: 50.1 µM [inhibitor, partial curve]"
5,Cc1ccc(C#N)c(SCC(=O)Nc2nccs2)n1,inactive
6,CCCc1cc(-c2[nH]ncc2-c2ccc(C(=O)OCC)o2)c(O)cc1O,"inconclusive: 79.4 µM [inhibitor, single point]"
7,O=C(c1ccccn1)N1N=C2/C(=C/c3ccc(F)cc3)CCCC2C1c1ccc(F)cc1 (centres undefined),"inconclusive: 0.708 µM [inhibitor, full curve, poor fit]"
8,Cc1cccc(-n2c(C)cc(/C=N/O)c2C)c1,"inconclusive: 89.1 µM [inhibitor, single point]"
9,COc1ccccc1C(=O)Nc1cccc(C(=O)OCc2cc(=O)n3cc(C)sc3n2)c1,inactive
10,Cc1ccc(Nc2nc(CSc3nnnn3C)cs2)cc1,inactive
11,COc1cc(/C=N/NC(=O)CC#N)cc(Br)c1O,active: 50.1 µM
12,COc1ccc(C2C(C(C)=O)=C(O)C(=O)N2c2cccnc2)c(OC)c1 (centres undefined),"inconclusive: 22.4 µM [inhibitor, partial curve, poor fit]"
13,Cc1ccccc1-c1cc2c(nn1)-c1ccccc1C2=O,"inconclusive: 79.4 µM [inhibitor, single point]"
14,O=C(O)CCCC(=O)Nc1ccc(OCc2nc3ccccc3s2)cc1,"inconclusive: 56.2 µM [inhibitor, partial curve]"
15,CC(=O)Nc1ccc(/C=N/N2CCCCC2)cc1,"inconclusive: 79.4 µM [inhibitor, single point]"
16,COc1ccc(-c2nnc(SCC(=O)NCCc3ccc(OC)c(OC)c3)nc2-c2ccc(OC)cc2)cc1,"inconclusive: 22.4 µM [inhibitor, full curve]"
17,CCn1c(SCC(=O)c2ccc(O)c(O)c2)nnc1-c1ccccc1,"inconclusive: 56.2 µM [inhibitor, partial curve]"
18,N#Cc1nc(-c2ccc(OCc3ccccc3)cc2)oc1NCCCN1CCOCC1,active: 50.1 µM
19,Cn1c(C(=O)N(Cc2ccccc2)Cc2ccccn2)cc2sccc21,"inconclusive: 50.1 µM [inhibitor, partial curve]"
20,O=C1c2cc([N+](=O)[O-])cc3cc([N+](=O)[O-])cc(c23)C(=O)N1c1ccccn1,"inconclusive: 56.2 µM [inhibitor, partial curve]"
21,CCC1CN(S(=O)(=O)c2cc(-c3cc(C)no3)ccc2C)c2cc(C)ccc2O1 (centres undefined),inactive
22,CC(C)c1nnc(SCC(=O)Nc2ccc3c(c2)OCCO3)n1C,inactive
23,COc1ccc(C(C(=O)NC(C)(C)C)N(Cc2ccc(C)cc2)C(=O)CCC(=O)Nc2cc(C)on2)cc1 (centres undefined),"inconclusive: 79.4 µM [inhibitor, single point]"

row,Structure (SMILES),Potency
1,COC(=O)COc1ccc(NC(=O)C(c2ccccc2)c2ccccc2)cc1,"inconclusive: 56.2 µM [inhibitor, partial curve]"
2,O=C(Cc1ccc(Cl)c(Cl)c1)NC1CCCCCC1,inactive
3,COc1ccc(NC(=S)N(Cc2ccc(Cl)cc2)Cc2ccc(C(=O)O)cc2)cc1Cl,"inconclusive: 100 µM [inhibitor, single point]"
4,O=C(Nc1nc2c(s1)CCCC2)C1COc2ccccc2O1 (centres undefined),"inconclusive: 79.4 µM [inhibitor, single point]"
5,CCOc1ccc(N(CC(=O)NCc2ccco2)S(C)(=O)=O)cc1,"inconclusive: 89.1 µM [inhibitor, single point]"
6,O=C(COC(=O)CNS(=O)(=O)c1c(F)cccc1F)NC(=O)NC1CCCCC1,inactive
7,CCN(CC)c1ccc(N2C(=O)/C(=C/c3cccnc3)SC2=S)cc1,"inconclusive: 25.1 µM [inhibitor, partial curve]"
8,CCOC(=O)NC(C(F)(F)F)(C(F)(F)F)P(=O)(c1ccccc1)c1ccccc1,"inconclusive: 89.1 µM [inhibitor, single point]"
9,CN=c1scc(-c2ccco2)n1/N=C/c1ccc(O)c(O)c1,active: 28.2 µM
10,Cc1ccccc1OCC(=O)Nc1nnc(S(=O)(=O)N2CCCC2)s1,active: 3.55 µM
11,CN(CC1CCCO1)S(=O)(=O)c1ccc(C(=O)Nc2nc(-c3ccccn3)cs2)cc1 (centres undefined),active: 28.2 µM
12,CCCCOC(=O)/C=C\C(=O)OCCCC,inactive
13,O=C(COC(=O)c1c2c(nc3ccccc13)/C(=C/c1cccc([N+](=O)[O-])c1)CCC2)NC1CCS(=O)(=O)C1 (centres undefined),"inconclusive: 44.7 µM [inhibitor, partial curve]"
14,O=C(CO)N/N=C/c1c2ccccc2cc2ccccc12,"inconclusive: 89.1 µM [inhibitor, single point]"
15,C=CCn1c(C)cc(C(=O)COC(=O)c2ccc3c(c2)NC(=O)CS3)c1C,"inconclusive: 35.5 µM [inhibitor, partial curve]"
16,CC(=O)c1sc(Nc2cccc(C)c2)nc1C,active: 50.1 µM
17,NC(=S)Cc1nc(-c2ccc(Cl)cc2)cs1,"inconclusive: 79.4 µM [inhibitor, single point]"
18,CCc1cc(C(=O)c2ccc(Br)cc2)c(NC(=O)CN(CC)CC)s1,"inconclusive: 89.1 µM [inhibitor, single point]"
19,COc1ccc2ccccc2c1/C=N/Nc1cccc(C(=O)O)c1,"inconclusive: 50.1 µM [inhibitor, partial curve]"
20,COc1ccc(N2C(=O)CC(NNc3ncc(Cl)cc3Cl)C2=O)cc1 (centres undefined),"inconclusive: 89.1 µM [inhibitor, single point]"
21,S=c1[nH]nc(COc2ccccc2)n1/N=C/C=C/c1ccco1,active: 44.7 µM
22,COc1ccc(OC)c(C2Nc3c(C)cc(C)cc3-c3cc(C)nn32)c1 (centres undefined),"inconclusive: 39.8 µM [inhibitor, partial curve]"
23,Cc1ccc(-c2nc3ccc(C(=O)O)cc3nc2-c2ccc(C)cc2)cc1,"inconclusive: 89.1 µM [inhibitor, single point]"
